# Source: the supplement of paper PMC8728848
# This is one part of the list.
# B1: CML1 (Coprinopsis cinerea) (protein)
# chain: MAIFHTGSELFIITRGPGKLTLLTWGGLNNLRSVIGAIPTENTGVTKWAVSFSHNYTRFSFIWEGQGEACYQIGNGLTRSPVGRSWSSSSTIHWGSSTVITEDVTSVVPGAVNRDKVTTAYALPDNL
# How the values were obtained:
# Test in all cases: glycan array binding signal (z-score within array); higher = stronger binding
# Details in all cases: glycan notation: IUPAC condensed, linker removed
# [1] = target: Fuc(a1-3)[Gal3S(b1-4)]GlcNAc
# How it was run: (§1)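 Columns mapping to the same glycan were averaged after glycan names were converted to IUPAC-condensed notation. The data come from 3228 arrays in the Consortium for Functional Glycomics database, limited to those with an available protein sequence. Binding is reported as a within-array Z-score averaged across arrays of one protein sequence and across linkers.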
# [2] = target: Fuc(a1-3)[Gal3S(b1-4)]GlcNAc6S
# How it was run: as §1
# [3] = target: Fuc(a1-3)[GalNAc(b1-4)]GlcNAc
# How it was run: as §1
# [4] = target: Fuc(a1-3)[GalNAc(b1-4)]GlcNAc6S
# How it was run: as §1
# [5] = target: Fuc(a1-4)GlcNAc
# How it was run: as §1
# [6] = target: Fuc(b1-3)GlcNAc
# How it was run: as §1
# [7] = target: Gal(a1-2)Gal
# How it was run: as §1
# [8] = target: Gal(a1-3)Gal
# How it was run: as §1
# [9] = target: Gal(a1-3)Gal(b1-3)GlcNAc
# How it was run: as §1
# [10] = target: Gal(a1-3)Gal(b1-3)GlcNAc(b1-2)Man
# How it was run: as §1
# [11] = target: Gal(a1-3)Gal(b1-3)GlcNAc(b1-2)Man(a1-3)[Gal(a1-3)Gal(b1-3)GlcNAc(b1-2)Man(a1-6)]Man(b1-4)GlcNAc(b1-4)GlcNAc
# How it was run: as §1
# [12] = target: Gal(a1-3)Gal(b1-3)GlcNAc(b1-3)GalNAc
# How it was run: as §1
# [13] = target: Gal(a1-3)Gal(b1-3)GlcNAc(b1-6)GalNAc
# How it was run: as §1
# [14] = target: Gal(a1-3)Gal(b1-3)[Fuc(a1-4)]GlcNAc(b1-2)Man(a1-3)[Gal(a1-3)Gal(b1-3)[Fuc(a1-4)]GlcNAc(b1-2)Man(a1-6)]Man(b1-4)GlcNAc(b1-4)GlcNAc
# How it was run: as §1
# [15] = target: Gal(a1-3)Gal(b1-4)Glc
# How it was run: as §1
# [16] = target: Gal(a1-3)Gal(b1-4)GlcNAc
# How it was run: as §1
# [17] = target: Gal(a1-3)Gal(b1-4)GlcNAc(b1-2)Man
# How it was run: as §1
# [18] = target: Gal(a1-3)Gal(b1-4)GlcNAc(b1-2)Man(a1-3)[Gal(a1-3)Gal(b1-4)GlcNAc(b1-2)Man(a1-6)]Man(b1-4)GlcNAc(b1-4)GlcNAc
# How it was run: as §1
# [19] = target: Gal(a1-3)Gal(b1-4)GlcNAc(b1-3)GalNAc
# How it was run: as §1
# [20] = target: Gal(a1-3)Gal(b1-4)GlcNAc(b1-6)GalNAc
# How it was run: as §1
# [21] = target: Gal(a1-3)Gal(b1-4)[Fuc(a1-3)]GlcNAc
# How it was run: as §1
# [22] = target: Gal(a1-3)Gal(b1-4)[Fuc(a1-3)]GlcNAc(b1-2)Man(a1-3)[Gal(a1-3)Gal(b1-4)[Fuc(a1-3)]GlcNAc(b1-2)Man(a1-6)]Man(b1-4)GlcNAc(b1-4)GlcNAc
# How it was run: as §1
# [23] = target: Gal(a1-3)GalNAc
# How it was run: as §1
# [24] = target: Gal(a1-3)[Gal(a1-4)]Gal(b1-4)GlcNAc
# How it was run: as §1
# [25] = target: Gal(a1-4)Gal(b1-3)GlcNAc(b1-2)Man(a1-3)[Gal(a1-4)Gal(b1-3)GlcNAc(b1-2)Man(a1-6)]Man(b1-4)GlcNAc(b1-4)GlcNAc
# How it was run: as §1
# [26] = target: Gal(a1-4)Gal(b1-4)Glc
# How it was run: as §1
# [27] = target: Gal(a1-4)Gal(b1-4)GlcNAc
# How it was run: as §1
# [28] = target: Gal(a1-4)Gal(b1-4)GlcNAc(b1-2)Man(a1-3)[Gal(a1-4)Gal(b1-4)GlcNAc(b1-2)Man(a1-6)]Man(b1-4)GlcNAc(b1-4)GlcNAc
# How it was run: as §1
# [29] = target: Gal(a1-4)Gal(b1-4)GlcNAc(b1-3)Gal(b1-4)Glc
# How it was run: as §1
# [30] = target: Gal(a1-4)GlcNAc
# How it was run: as §1
# [31] = target: Gal(a1-6)Glc
# How it was run: as §1
# [32] = target: Gal(b1-2)Gal
# How it was run: as §1
# [33] = target: Gal(b1-3)Gal
# How it was run: as §1
# [34] = target: Gal(b1-3)Gal(b1-4)GlcNAc
# How it was run: as §1
# [35] = target: Gal(b1-3)GalNAc
# How it was run: as §1
# [36] = target: Gal(b1-3)GalNAc(a1-3)[Fuc(a1-2)]Gal(b1-4)Glc
# How it was run: as §1
# [37] = target: Gal(b1-3)GalNAc(a1-3)[Fuc(a1-2)]Gal(b1-4)GlcNAc
# How it was run: as §1
# [38] = target: Gal(b1-3)GalNAc(b1-3)Gal
# How it was run: as §1
# [39] = target: Gal(b1-3)GalNAc(b1-3)Gal(a1-4)Gal(b1-4)Glc
# How it was run: as §1
# [40] = target: Gal(b1-3)GalNAc(b1-4)Gal(b1-4)Glc
# How it was run: as §1
# [41] = target: Gal(b1-3)GalNAc(b1-4)[Neu5Ac(a2-3)]Gal(b1-4)Glc
# How it was run: as §1
# [42] = target: Gal(b1-3)GlcNAc
# How it was run: as §1
# [43] = target: Gal(b1-3)GlcNAc(a1-3)Gal(b1-4)GlcNAc
# How it was run: as §1
# [44] = target: Gal(b1-3)GlcNAc(a1-6)Gal(b1-4)GlcNAc
# How it was run: as §1
# [45] = target: Gal(b1-3)GlcNAc(b1-2)Man
# How it was run: as §1
binder,measurement,setting,value
B1,glycan array binding signal (z-score),[1],2.79
same,glycan array binding signal (z-score),[2],1.89
same,glycan array binding signal (z-score),[3],0.228
same,glycan array binding signal (z-score),[4],2.43
same,glycan array binding signal (z-score),[5],-0.326
same,glycan array binding signal (z-score),[6],-0.35
same,glycan array binding signal (z-score),[7],-0.361
same,glycan array binding signal (z-score),[8],-0.325
same,glycan array binding signal (z-score),[9],-0.32
same,glycan array binding signal (z-score),[10],-0.327
same,glycan array binding signal (z-score),[11],-0.346
same,glycan array binding signal (z-score),[12],-0.349
same,glycan array binding signal (z-score),[13],-0.349
same,glycan array binding signal (z-score),[14],-0.239
same,glycan array binding signal (z-score),[15],-0.337
same,glycan array binding signal (z-score),[16],-0.312
same,glycan array binding signal (z-score),[17],-0.347
same,glycan array binding signal (z-score),[18],-0.314
same,glycan array binding signal (z-score),[19],-0.337
same,glycan array binding signal (z-score),[20],-0.353
same,glycan array binding signal (z-score),[21],-0.346
same,glycan array binding signal (z-score),[22],-0.343
same,glycan array binding signal (z-score),[23],-0.31
same,glycan array binding signal (z-score),[24],-0.318
same,glycan array binding signal (z-score),[25],-0.306
same,glycan array binding signal (z-score),[26],-0.322
same,glycan array binding signal (z-score),[27],-0.327
same,glycan array binding signal (z-score),[28],-0.317
same,glycan array binding signal (z-score),[29],-0.319
same,glycan array binding signal (z-score),[30],-0.342
same,glycan array binding signal (z-score),[31],-0.346
same,glycan array binding signal (z-score),[32],-0.319
same,glycan array binding signal (z-score),[33],-0.338
same,glycan array binding signal (z-score),[34],-0.329
same,glycan array binding signal (z-score),[35],-0.346
same,glycan array binding signal (z-score),[36],-0.312
same,glycan array binding signal (z-score),[37],-0.354
same,glycan array binding signal (z-score),[38],-0.339
same,glycan array binding signal (z-score),[39],-0.371
same,glycan array binding signal (z-score),[40],-0.344
same,glycan array binding signal (z-score),[41],-0.352
same,glycan array binding signal (z-score),[42],-0.327
same,glycan array binding signal (z-score),[43],-0.32
same,glycan array binding signal (z-score),[44],-0.358
same,glycan array binding signal (z-score),[45],-0.341
